Where “and” joins values, the source holds several entries; their conditions need not be identical. Equal entries are not always repeated. ± gives the uncertainty stated by the source. In all, about 9,900 compounds were measured (“viability index relative to DMSO control”: median about 1, lowest 2% from about 0.85 on). Some of the results follow.
These compounds were tested on Plasmodium falciparum NF54 stage V gametocytes (assay: viability index relative to DMSO control (fraction); higher = less gametocyte killing). Details: 2.5 µM, library set: Broad Institute DOS, incubation time: 72 h.
Summary of the method: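 Gametocytes (P. falciparum NF54, stage V) were treated with compound at 2.5 µM for 72 hr at 37°C in low oxygen, in serum-free medium at 0.75% gametocytemia and 1.25% hematocrit. Counts of 20–70 µm2 red particles, taken from one field per well after MitoTracker Red CMXRos with saponin, were divided by the plate mean of solvent-only wells. This ratio is the viability index.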

SMILES	viability index
N#C[C@H]1[C@@H](c2ccc(C3=CCCC3)cc2)[C@H](CO)N1C(=O)c1ccccn1	1.09 ± 0.029
CCCNC(=O)N(C)C[C@H]1Oc2ncc(C#CC3CCCCC3)cc2C(=O)N([C@@H](C)CO)C[C@@H]1C	0.929 ± 0.067
CO[C@@H](CN(C)S(=O)(=O)c1ccc(C)cc1)[C@@H](C)CN(C(=O)Nc1ccccc1F)[C@@H](C)CO	0.99 ± 0.03
C[C@@H]1CN([C@@H](C)CO)C(=O)c2ccccc2-c2ccccc2CO[C@@H]1CN(C)S(=O)(=O)c1cccs1	0.989 ± 0.056
O=C(C1CCCCC1)N1[C@@H](CO)[C@@H]2c3ccccc3N(S(=O)(=O)c3ccccc3)C[C@@H]21	1 ± 0.022
O=C(C1CCC1)N1C[C@@H]2N[C@H](C1)[C@@H]2c1ccc(-c2cncnc2)cc1	1.115 ± 0.0039
COc1ccccc1S(=O)(=O)N(C)C[C@H]1OCc2ccccc2-c2ccccc2C(=O)N([C@H](C)CO)C[C@H]1C	1.07 ± 0.12
CC1C=NC(S(=O)(=O)N2CC[C@H]3[C@@H](CO)N(C)c4ccc(C#Cc5cccnc5)cc4[C@H]32)=N1 (stereo partly specified)	1.07 ± 0.03
CC(C)CC#Cc1ccc([C@@H]2[C@H](CO)N3C(=O)CN(C(=O)c4cccc(F)c4)C[C@@H]23)cc1	1.11 ± 0.013
O=C(C1CCCC1)N1CC2(C1)[C@H](c1ccccc1)[C@H](CO)N2Cc1ccc(Cl)cc1	1.125 ± 0.0037
COCC#Cc1ccc([C@H]2[C@H]3CN(C(=O)c4ccncc4)CC(=O)N3[C@H]2CO)cc1	1.06 ± 0.13
COc1ccc(cc1)S(=O)(=O)N1C[C@@]2(C1)CN([C@H](CO)c1c2c2ccc(OC)cc2n1C)C(=O)CN(C)C	0.841 ± 0.028
O=C(C1CCOCC1)N1C[C@@H]2[C@H](c3ccccc31)[C@@H](CO)N2C(=O)Nc1ccccc1F	0.988 ± 0.055
COc1ccc(NC(=O)N2CCCCN3[C@@H](CO)[C@@H](c4ccc(-c5ccccc5F)cc4)[C@@H]3C2)cc1	0.993 ± 0.011
CCCN(C)C[C@H]1OCc2ccccc2-c2ccccc2C(=O)N([C@@H](C)CO)C[C@H]1C	0.89 ± 0.011
O=C(C[C@H]1C[C@H]2c3cc(NC(=O)Nc4ccccc4F)ccc3O[C@H]2[C@H](CO)O1)NCc1ccccn1	0.97 ± 0.075
C[C@@H](NC(=O)C[C@H]1C=C[C@@H](NS(=O)(=O)c2cccc(F)c2)[C@@H](CO)O1)c1ccccc1	1.05 ± 0.12
O=C(C1CCOCC1)N1[C@H](CO)[C@@H](c2ccccc2)C12CN(Cc1cccc(Cl)c1)C2	1.1 ± 0.062
COc1ccc(NC(=O)N(C)C[C@@H]2Oc3ccc(NC(=O)Nc4cccc5ccccc45)cc3CC(=O)N([C@@H](C)CO)C[C@@H]2C)cc1	0.9446 ± 0.0047
O=C(C[C@H]1CC[C@@H]2[C@H](COC[C@H](O)CN2C(=O)Nc2ccccc2)O1)NCc1ccccc1F	1.11 ± 0.041
COc1ccc2c3c([nH]c2c1)[C@@H](CO)NC[C@]31CCN(CC1)C(=O)c1ccccc1	0.973 ± 0.03
COc1cccc(S(=O)(=O)Nc2ccc3c(c2)C(=O)N(C)C[C@H](OC)[C@H](C)CN(Cc2ccccc2F)[C@H](C)CO3)c1	0.974 ± 0.1
CC(C)NC(=O)N1[C@H](CNC(=O)CN(C)C)[C@@H](c2ccccc2)[C@@H]1CO	1.02 ± 0.1
COc1ccc2c3c([nH]c2c1)[C@@H](CO)N(C[C@]31CCN(Cc2nccs2)CC1)C(=O)C1CCOCC1	0.915 ± 0.072

SMILES	viability index
Cc1ccccc1S(=O)(=O)N1CC[C@@H]2[C@@H](CO)N(C)c3ccc(-c4cccc(F)c4)cc3[C@@H]21	0.94 ± 0.027
C[C@@H]1CN([C@@H](C)CO)C(=O)c2ccccc2-c2ccccc2CO[C@@H]1CN(C)Cc1cccnc1	1.049 ± 0.005
OC[C@@H]1[C@H](c2ccc(C#Cc3ccccc3F)cc2)[C@H]2CN(CC3CCOCC3)CCCCN12	0.971 ± 0.014
CO[C@H](CN(C)S(=O)(=O)c1ccc(C)cc1)[C@@H](C)CN([C@@H](C)CO)S(=O)(=O)c1cccc(Cl)c1	1.03 ± 0.042
Cc1noc(C)c1NC(=O)N1C[C@@H](O)COC[C@H]2O[C@H](CC(=O)N[C@H]3CCN(Cc4ccccc4)C3)CC[C@@H]21	1.03 ± 0.011
O=C(Cc1cccnc1)N1CC(=O)N2[C@H](CO)[C@H](c3ccc(C#CC4CCCCC4)cc3)[C@H]2C1	0.801 ± 0.073
C[C@@H]1CN([C@H](C)CO)C(=O)c2cccc(NC(=O)C3CCOCC3)c2O[C@H]1CN(C)C(=O)Nc1cccc2ccccc12	0.974 ± 0.032
Cc1ccc(S(=O)(=O)N[C@H]2CC[C@@H](CC(=O)NCc3ccncn3)O[C@H]2CO)cc1	0.946 ± 0.061
COCC(=O)N1[C@@H](CO)[C@@H]2c3ccccc3N(C)C[C@@H]21	1.02 ± 0.027
COc1cccc(NC(=O)N2[C@@H]3CNC[C@H]2[C@@H]3c2ccc(-c3ccncc3)cc2)c1	1.05 ± 0.024
CCS(=O)(=O)Nc1ccc2c(c1)C(=O)N(C)C[C@H](OC)[C@H](C)CN(CC1CCCCC1)[C@@H](C)CO2	1.007 ± 0.008
C/C=C/c1ccc([C@H]2[C@@H](CO)N3CCCCN(C(=O)c4ccc(F)cc4)C[C@@H]23)cc1	1.09 ± 0.11
COCc1cn(CC[C@H]2CC[C@@H](NC(=O)Nc3c(C)noc3C)[C@@H](CO)O2)nn1	0.947 ± 0.11
C[C@H](CO)N1C[C@H](C)[C@@H](CN(C)Cc2ccc(F)cc2)Oc2cc(C#CC(C)(C)O)ccc2S1(=O)=O	0.92 ± 0.078
O=C(c1ccccc1F)N1C[C@H]2[C@@H](c3ccccc31)[C@H](CO)N2C(=O)Nc1ccccc1	1.09 ± 0.11
COC(=O)[C@@H]1[C@@H](CO)[C@@H]2Cn3c(ccc(-c4cncnc4)c3=O)[C@@H]2N1CCC(F)(F)F	0.964 ± 0.049
O=C(C[C@@H]1CC[C@@H]2[C@H](COC[C@H](O)CN2C(=O)c2ccc(F)cc2)O1)N1CCCCC1	1.03 ± 0.045
C[C@@H]1CCCCO[C@H](CN(C)CC2CC2)[C@H](C)CN([C@@H](C)CO)C(=O)c2cc(NC(=O)c3ccccc3)ccc2O1	1.05 ± 0.044
O=C(Nc1ccc(F)cc1)N1[C@H](CO)[C@@H]2c3ccccc3NC[C@@H]21	1.01 ± 0.14
N#C[C@@H]1[C@@H](c2ccc(-c3cccc(F)c3)cc2)[C@H](CO)N1c1nc(-c2ccccc2)cs1	1.11 ± 0.035
C[C@@H]1CN([C@H](C)CO)C(=O)Cc2cc(NC(=O)Nc3ccc(F)cc3)ccc2O[C@@H]1CN(C)S(C)(=O)=O	1.04 ± 0.041
CNC[C@@H]1OCCCC[C@@H](C)Oc2ccc(NS(=O)(=O)c3ccc(F)cc3)cc2C(=O)N([C@@H](C)CO)C[C@H]1C	1.1 ± 0.013
CCC(=O)N[C@@H]1CC[C@H](CC(=O)NCc2ccccc2F)O[C@H]1CO	1.12 ± 0.032
COc1cccc(S(=O)(=O)N(C)C[C@H]2Oc3cc(Br)ccc3S(=O)(=O)N([C@@H](C)CO)C[C@H]2C)c1	0.978 ± 0.026

SMILES	viability index
COc1ccc([C@H]2C/C=C\C[C@@H](c3ccc4c(c3)OCO4)NC(=O)CCC(=O)N2)c(OC)c1	1.03 ± 0.015
CCS(=O)(=O)NCC[C@H]1CC[C@H](NC(=O)Nc2cc(Cl)cc(Cl)c2)[C@@H](CO)O1	1.147 ± 0.0024
O=S(=O)(c1ccc(F)cc1)N1C[C@@H]2N[C@H](C1)[C@@H]2c1ccc(/C=C/c2ccccc2)cc1	0.78 ± 0.029
C[C@H](CO)N1C[C@H](C)[C@@H](CN(C)C(=O)c2ccncc2)OCCCC[C@H](C)Oc2ccc(NC(=O)CCC(F)(F)F)cc2C1=O	1.08 ± 0.041
COc1ccc2c3c([nH]c2c1)[C@H](CO)N(Cc1nccs1)C[C@]31CCN(CC1)C(=O)C1CCCCC1	0.983 ± 0.095
C[C@@H]1CN([C@H](C)CO)C(=O)CCCn2cc(nn2)CO[C@@H]1CN(C)C(=O)CCC(F)(F)F	1.06 ± 0.031
COc1ccc2c3c([C@H](CO)N(CC4CCCC4)C[C@]33CN(C3)C(=O)Nc3ccccc3)n(C)c2c1	1.11 ± 0.062
NCC[C@H]1CC[C@@H](NS(=O)(=O)c2ccc(Cl)cc2)[C@@H](CO)O1	1.11 and 1.16
CO[C@@H]1CN(C)C(=O)c2cc(NC(=O)Nc3c(C)noc3C)ccc2OC[C@H](C)NC[C@@H]1C	1.03 ± 0.053
O=C(C[C@H]1C=C[C@@H](NS(=O)(=O)c2ccccc2)[C@@H](CO)O1)NCCN1CCCCC1	1.12 ± 0.12
CC(C)NC(=O)Nc1ccc2c(c1)C(=O)N([C@H](C)CO)C[C@H](C)[C@@H](CN(C)C(=O)C1CCCCC1)OCCCC[C@@H](C)O2	1.049 ± 0.0083
O=C(Nc1ccc(C(F)(F)F)cc1)Nc1ccc2c(c1)[C@H]1C[C@@H](CC(=O)N3CCc4ccccc4C3)O[C@@H](CO)[C@H]1O2	1.03 ± 0.058
CO[C@H]1CN(C)C(=O)c2ccc(NC(=O)C3CCC3)cc2OC[C@H](C)N(Cc2ccccn2)C[C@@H]1C	1.04 and 1.1
COc1cccc(S(=O)(=O)N(C)C[C@H]2OCc3ccccc3-c3c(n(C)c4ccccc34)C(=O)N([C@H](C)CO)C[C@H]2C)c1	0.952 ± 0.034
CN1C(=O)c2cc(NC(=O)Nc3ccccc3Cl)ccc2OC[C@H]2O[C@H](CC(=O)O)CC[C@@H]21	0.98 ± 0.064
CO[C@@H]1CN(C)C(=O)c2ccc(NC(=O)NC(C)C)cc2OC[C@H](C)N(Cc2ccc(-c3ccccn3)cc2)C[C@H]1C	1.09 ± 0.021
C[C@@H]1CN([C@@H](C)CO)C(=O)c2cc(NC(=O)Nc3ccc4c(c3)OCO4)ccc2O[C@@H](C)CCCCO[C@H]1CN(C)S(=O)(=O)c1ccccc1	0.99 ± 0.042
C[C@H](NC(=O)C[C@@H]1CC[C@H]2[C@@H](COC[C@@H](O)CN2C(=O)Nc2cccc(Cl)c2)O1)c1ccccc1	1 ± 0.064
CCC(=O)N1[C@H](CO)[C@H](c2ccc(C3=CCCC3)cc2)C12CN(C(=O)COC)C2	1.12 ± 0.033
CNC[C@@H]1OCCCC[C@@H](C)Oc2ccc(N)cc2C(=O)N([C@H](C)CO)C[C@H]1C	1.11 ± 0.19
CCC(=O)N1CC(=O)N2[C@H](CO)[C@@H](c3ccc(-c4ccc(C#N)cc4)cc3)[C@@H]2C1	0.946 ± 0.014
COc1ccccc1NC(=O)N1C[C@@H](O)COC[C@@H]2O[C@H](CC(=O)NCCc3ccncc3)CC[C@H]21	1.06 ± 0.022
COCC(=O)NC[C@H]1[C@H](c2ccccc2)[C@H](CO)N1C(=O)c1ccccc1	1.1 ± 0.017

From the supplement of paper PMC4723716
